Measurements published in the supplement of paper PMC3334620.
Whole data set: some 33,000 sequences, median “E-score (-0.5 to 0.5)” near -0.012, cut for the highest 2% near 0.27. Some of the results follow.

molecular target: T1, Vhr1 (UniProt P40522); assay: PBM E-score (8-mer binding enrichment) (E-score (-0.5 to 0.5)); higher = stronger / more preferred TF binding; most listed sequences are background and not binding sites; settings: protein concentration: 200 nM; construct: GST-full length
T1 sequence: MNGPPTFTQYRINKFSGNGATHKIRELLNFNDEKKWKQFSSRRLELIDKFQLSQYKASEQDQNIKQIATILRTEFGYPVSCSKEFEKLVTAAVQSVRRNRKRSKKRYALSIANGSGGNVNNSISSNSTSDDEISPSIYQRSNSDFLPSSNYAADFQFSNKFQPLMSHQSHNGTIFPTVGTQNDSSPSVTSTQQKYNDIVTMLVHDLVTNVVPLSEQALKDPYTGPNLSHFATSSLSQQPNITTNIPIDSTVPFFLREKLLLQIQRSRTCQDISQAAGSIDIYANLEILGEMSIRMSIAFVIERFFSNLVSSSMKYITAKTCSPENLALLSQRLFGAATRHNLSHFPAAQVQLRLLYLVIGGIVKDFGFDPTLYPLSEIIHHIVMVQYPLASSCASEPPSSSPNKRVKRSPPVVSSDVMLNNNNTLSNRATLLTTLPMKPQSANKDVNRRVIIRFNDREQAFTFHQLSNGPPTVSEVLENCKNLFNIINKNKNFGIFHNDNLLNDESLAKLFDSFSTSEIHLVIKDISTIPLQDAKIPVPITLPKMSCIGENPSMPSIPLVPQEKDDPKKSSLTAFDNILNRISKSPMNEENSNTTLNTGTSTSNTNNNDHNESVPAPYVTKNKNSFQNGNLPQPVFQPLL
Description: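 Universal 'all 10-mer' protein binding microarrays (Agilent AMADID 015681) probed with GST-tagged S. cerevisiae TFs (full-length or DBD) made by in vitro transcription/translation (PURExpress), about 100-200 nM. Bound TF was detected with fluorescent anti-GST. Each ungapped 8-mer (which stands for itself and its reverse complement) is scored by the PBM enrichment score (E-score), a modified Wilcoxon-Mann-Whitney statistic from -0.5 to +0.5, computed with the Universal PBM Analysis Suite. Scale: above 0.35 generally sequence-specific binding.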

Row | Sequence | PBM E-score
1 | ATGGTAAC | 0.151
2 | AGGATAAC | -0.0693
3 | ATCGATAC | 0.149
4 | AGGCCATA | -0.0523
5 | ACTTAGTG | 0.0972
6 | AGTGATGG | 0.0185
7 | CACCTGGG | 0.196
8 | AGCCACGA | 0.0851
9 | GCGAGGAC | -0.0317
10 | CGACGGAA | -0.0009
11 | GTCACAAC | 0.207
12 | AGTTCATA | 0.143
13 | CTTGCTTC | -0.214
14 | AAGCACCG | -0.0762
15 | ATAGGGAT | 0.0344
16 | CACTGGAC | 0.107
17 | GCGCCTGA | 0.048
18 | AACGCGCG | 0.148
19 | CTCCGGAC | 0.0766
20 | ACCGAGGC | -0.0803
21 | GACGGTCA | 0.0404
22 | GGTCTCGA | -0.0244
23 | ATGGAAAT | -0.0238
24 | GGCAGCGA | -0.0616
25 | GGGATACA | 0.0929

Row | Sequence | PBM E-score
26 | CCCCTAGA | -0.115
27 | AGAAATCA | 0.1
28 | CCACACAC | 0.143
29 | CGAGCAAA | -0.143
30 | AAACCGCG | 0.176
31 | CCGAGATA | -0.0394
32 | GGCCAGAA | -0.00605
33 | CGCTTCGA | -0.0202
34 | CAGACGAA | 0.206
35 | ACAACAAA | 0.0529
36 | CCTCGGCA | -0.129
37 | CTCTGGAA | -0.193
38 | ACTACTTA | 0.017
39 | TCCCGGGA | -0.0779
40 | CTCCCCAA | 0.105
41 | AATTATTA | 0.0229
42 | CTCCTCAA | -0.129
43 | CGCTAGCC | -0.154
44 | GTTCCCAA | -0.13
45 | CCGATATA | -0.131
46 | ACGTCTAA | -0.0983
47 | CCTTTTCG | -0.151
48 | ATCTAAAG | -0.0653
49 | AGTTGCCG | -0.0574
50 | CCGTTCAG | -0.184

Row | Sequence | PBM E-score
51 | CTTAGGCC | -0.102
52 | CACGGTAA | -0.0299
53 | CATTACGG | -0.0535
54 | GGTCTAGA | -0.122
55 | GCGCATAC | -0.0687
56 | CGCAACAC | 0.13
57 | GCGCAACC | -0.0294
58 | TAACGCAA | -0.0231
59 | CCGCGTAG | 0.11
60 | GCTAAGCC | -0.0382
61 | GTGCCATA | -0.174
62 | GATGATGC | 0.0431
63 | CCGTCCAG | -0.0853
64 | AAGAGTGG | -0.0723
65 | GATCCCCC | -0.129
66 | GGAACCAA | 0.171
67 | GGATACTA | 0.0459
68 | ACACAGGC | 0.226
69 | GAACGTTA | -0.323
70 | GCCAAATA | -0.0475
71 | GTGGTGCA | -0.217
72 | GCCGATCC | 0.0158
73 | CCATCTGC | 0.0983
74 | AACCAGAC | -0.00075
75 | GGTCGATA | 0.0188

Row | Sequence | PBM E-score
76 | CGACTCCA | 0.4
77 | GAGATGAC | 0.248
78 | CCCCATCG | 0.0191
79 | CGGACATA | -0.00426
80 | ATACGGCC | 0.0223
81 | AAACGCAA | 0.00869
82 | GTGCTCGA | -0.135
83 | GTGTGGTA | -0.0123
84 | CGCAATAC | 0.268
85 | GAGCATCC | -0.183
86 | AGTGCAAC | 0.0257
87 | CTCGACAC | 0.0634
88 | CTATTGGA | -0.0419
89 | CTAGGGAA | -0.156
90 | CCCAGTTA | -0.039
91 | CACATGTA | 0.262
92 | ACCGCCCG | -0.058
93 | CTGTATTA | 0.119
94 | AGTCTCAT | 0.135
95 | CGTTGGTA | 0.0442
96 | GACTTTGA | -0.204
97 | CCCAGTGA | 0.0456
98 | ATAATATC | 0.0835
99 | AAGTCGGG | -0.112
100 | TATTAGCA | 0.135

Row | Sequence | PBM E-score
101 | CCGTAGGC | -0.0447
102 | GACAGCCC | -0.0309
103 | ACATGCAC | 0.0124
104 | GGATAGTA | 0.22
105 | CTGATTAC | 0.278
106 | GTCACCGA | 0.256
107 | ACGATTCA | 0.112
108 | AGGGTAAT | 0.148
109 | GGCCGACC | -0.168
110 | TATGCAAA | -0.12
111 | AAATGCTA | 0.00222
112 | AACGGGCA | -0.194
113 | AGAATATA | -0.0382
114 | AATGCATC | -0.0108
115 | TCCTCAAA | -0.133
116 | CGCTCCCC | -0.16
117 | CAGCTTGA | 0.0883
118 | AGTCTAAG | -0.0818
119 | AGTACATA | 0.156
120 | GCAGTTCC | -0.059
121 | ATTCTCAA | 0.122
122 | AGGTTAAA | -0.0835
123 | CGAGGGCG | -0.11
124 | ACACAGAC | 0.25
125 | ATATATGG | 0.218

Row | Sequence | PBM E-score
126 | ACCATATC | 0.193
127 | AAAAAGCT | -0.231
128 | CTCACTAC | 0.033
129 | AATTAGAG | -0.144
130 | CCTCGTCA | 0.17
131 | ACTCAGTG | 0.245
132 | CTAGTTGA | 0.202
133 | CCCTGTAA | -0.13
134 | ACGGATAA | 0.109
135 | CCACTTCC | 0.123
136 | AGTTTGAC | -0.0328
137 | ATCAAGAC | 0.0901
138 | GAAACACA | 0.0985
139 | GACCCATC | 0.188
140 | CGCGGAAA | -0.0658
141 | CAGCGACA | -0.0517
142 | CTGCTGCA | 0.0624
143 | CGCAGAAC | 0.0458
144 | CATTTCGG | -0.202
145 | CAAAGATG | -0.0482
146 | TCCTCGCA | 0.0367
147 | CCATCCTC | 0.0474
148 | AGTCCTGG | 0.00405
149 | AACTTTGA | -0.0541
150 | ACCCGTCG | -0.216

Row | Sequence | PBM E-score
151 | AGGAAAGA | -0.121
152 | CGCATCTC | -0.0205
153 | AGCACTCG | 0.047
154 | ACAGGTTG | 0.0217
155 | CCGTTTCA | -0.116
156 | GATTGGAA | -0.0275
157 | GATACTAA | 0.18
158 | AAGTCATA | 0.316
159 | AGAGGGGA | -0.129
160 | GTCTCACA | 0.177
161 | AACCGGCG | 0.225
162 | ATGGAAAG | -0.109
163 | GCAACCGC | -0.117
164 | ACGCAAGA | -0.0431
165 | CTCTACGA | -0.156
166 | TACATAGA | 0.0658
167 | AGCCTCCG | -0.0751
168 | CCACGCTA | -0.246
169 | CAGTGTCA | 0.113
170 | CACGAAGA | 0.24
171 | ATGTCATC | 0.0412
172 | CAACAGCC | -0.132
